The text below walks through data of a collection of fitness landscapes (doi:10.1126/science.1257360).

B1: PhoQ; a variant is named by its letters at X, in order, P23837 (parent)
chain: MKKLLRLFFPLSLRVRFLLATAAVVLVLSLAYGMVALIGYSVSFDKTTFRLLRGESNLFYTLAKWENNKLHVELPENIDKQSPTMTLIYDENGQLLWAQRDVPWLMKMIQPDWLKSNGFHEIEADVNDTSLLLSGDHSIQQQLQEVREDDDDAEMTHSVAVNVYPATSRMPKLTIVVVDTIPVELKSSYMVWSWFIYVLSANLLLVIPLLWVAAWWSLRPIEALAKEVRELEEHNRELLNPATTRELTSLVRNLNRLLKSERERYDKYRTTLTDLTHSLKTPLXXLQXXLRSLRSEKMSVSDAEPVMLEQISRISQQIGYYLHRASMRGGTLLSRELHPVAPLLDNLTSALNKVYQRKGVNISLDISPEISFVGEQNDFVEVMGNVLDNACKYCLEFVEISARQTDEHLYIVVEDDGPGIPLSKREVIFDRGQRVDTLRPGQGVGLAVAREITEQYEGKIVAGESMLGGARMEVIFGRQHSAPKDE

The list shows a part of the results. Where only a bound is given, the exact number is not on record here.

In this assay the parent is B1. Description: enrichment ratio after two sorts for PhoP signalling (ratio (wild type AVST 3.29)); higher = more functional. The settings on record: with PhoP (E. coli).
On to NLRW, for which the enrichment ratio was not above 0.25. For the variant IHLQ, the enrichment ratio is not above 0.25. To NMSK belongs not above 0.25.

Turning to KQFP, the enrichment ratio was not above 0.25. Turning to LQVF, the enrichment ratio was not above 0.25. For RSLY, the enrichment ratio was not above 0.25. As for REYL, the enrichment ratio was not above 0.25. For TLKM, the enrichment ratio was not above 0.25. The result for GHVF reads not above 0.25; that for RCPS, not above 0.25; that for WDHM, not above 0.25.

Turning to HLNQ, the enrichment ratio is not above 0.25. The result for CCHY reads not above 0.25.

As to KIFT, the enrichment ratio was not above 0.25. For SERP, the enrichment ratio was not above 0.25. Turning to PMCD, the enrichment ratio is not above 0.25.

As for GWMW, the enrichment ratio was not above 0.25. For GPGK, the enrichment ratio is not above 0.25. For YASM, the enrichment ratio was not above 0.25.

As for YEEC, the enrichment ratio was not above 0.25. For the variant YQDS, the enrichment ratio is not above 0.25. Regarding WYGH, the enrichment ratio is not above 0.25. Regarding DYYW, the enrichment ratio was not above 0.25. To TDYN belongs not above 0.25. In the case of MHHP, the enrichment ratio is not above 0.25. The result for HKTT reads not above 0.25. The result for ARNY reads not above 0.25; that for DRSG, not above 0.25. For SHGI, the enrichment ratio is not above 0.25. Regarding FMGG, the enrichment ratio is not above 0.25. With VEEI, the enrichment ratio is not above 0.25.

As for FFKY, the enrichment ratio was not above 0.25. Consider KNNP, for which the enrichment ratio is not above 0.25.

Regarding HRFW, the enrichment ratio is not above 0.25. As to NETL, the enrichment ratio was not above 0.25. Turning to ILMR, the enrichment ratio was not above 0.25. Consider DMEP, for which the enrichment ratio is not above 0.25. In the case of QLFI, the enrichment ratio was not above 0.25. LGTY: the enrichment ratio is not above 0.25. As to QMSS, the enrichment ratio came to 0.71. To NMSW belongs not above 0.25; to WTHR, not above 0.25; to SGMH, 7.55. SMYE: the enrichment ratio was not above 0.25. The result for VSYP reads not above 0.25; that for WTQA, not above 0.25.

For the variant RDLV, the enrichment ratio was not above 0.25.

Turning to HVVP, the enrichment ratio was not above 0.25. Regarding GDQQ, the enrichment ratio is not above 0.25. DASM: the enrichment ratio was not above 0.25. Consider SWVF, for which the enrichment ratio was not above 0.25. KFVY: the enrichment ratio was not above 0.25.

YTVQ: the enrichment ratio came out at 0.393. In the case of WPTP, the enrichment ratio was not above 0.25. On to FPIW, for which the enrichment ratio is not above 0.25. In the case of GFGW, the enrichment ratio was not above 0.25.

In the case of RPIV, the enrichment ratio is not above 0.25. On to STPR, for which the enrichment ratio was not above 0.25.

As for NNNM, the enrichment ratio is not above 0.25.

In the case of AMYP, the enrichment ratio is not above 0.25.

Regarding STQC, the enrichment ratio was 4.1. On to EIVF, for which the enrichment ratio was not above 0.25. Consider QPLL, for which the enrichment ratio was not above 0.25. On to ADMY, for which the enrichment ratio was found to be 0.253.

Regarding RRDV, the enrichment ratio was not above 0.25. Regarding QWMS, the enrichment ratio is not above 0.25. The result for YMER reads not above 0.25.

As for CAFK, the enrichment ratio was not above 0.25. For the variant TRTN, the enrichment ratio was not above 0.25. As to MEEL, the enrichment ratio is not above 0.25.

With AHHG, the enrichment ratio is not above 0.25. On to GYGY, for which the enrichment ratio is not above 0.25. For FVTG, the enrichment ratio was not above 0.25. With ESVR, the enrichment ratio is not above 0.25.

Regarding QTCN, the enrichment ratio is not above 0.25. The result for ELYV reads not above 0.25; that for TLFC, 0.278; that for IRAP, not above 0.25. For the variant KNIQ, the enrichment ratio is not above 0.25. The result for EDHH reads not above 0.25.

In the case of WNQL, the enrichment ratio was not above 0.25. Regarding DMRL, the enrichment ratio was not above 0.25. YTVP: the enrichment ratio was not above 0.25. Take WNVV: the enrichment ratio is not above 0.25. For the variant KDSH, the enrichment ratio was not above 0.25. Regarding DLCP, the enrichment ratio was not above 0.25.

Take ACIQ: the enrichment ratio was 11.8. With IRAN, the enrichment ratio was not above 0.25. To GSNG belongs not above 0.25; to TLMH, not above 0.25. As for GEQI, the enrichment ratio was not above 0.25. Consider SGLP, for which the enrichment ratio is not above 0.25. The result for APPR reads not above 0.25. Turning to NMFY, the enrichment ratio is not above 0.25. To HLVY belongs not above 0.25; to VRYH, not above 0.25.

On to FRHD, for which the enrichment ratio was not above 0.25. To LQCF belongs not above 0.25. As for DHND, the enrichment ratio was not above 0.25. AITL: the enrichment ratio turned out to be 24.3. On to HEYF, for which the enrichment ratio is not above 0.25. To TVQF belongs 1.22; to LWEH, not above 0.25. Take PDIA: the enrichment ratio is not above 0.25.

For KNTA, the enrichment ratio is not above 0.25. For IDPY, the enrichment ratio was not above 0.25. For HKIW, the enrichment ratio was not above 0.25. On to EAQV, for which the enrichment ratio is not above 0.25. For NCKC, the enrichment ratio is not above 0.25. On to GFVK, for which the enrichment ratio is not above 0.25. Consider DDGK, for which the enrichment ratio is not above 0.25. To VKTN belongs not above 0.25; to KSNM, not above 0.25; to YDMC, not above 0.25. On to YSKH, for which the enrichment ratio is not above 0.25. For NWST, the enrichment ratio was not above 0.25.

As for HWNY, the enrichment ratio was not above 0.25.

Turning to NPNV, the enrichment ratio was not above 0.25.

As for NRYY, the enrichment ratio is not above 0.25. KLIM: the enrichment ratio is not above 0.25. To MVQY belongs not above 0.25; to KCPQ, not above 0.25. The result for QEAL reads not above 0.25; that for GPAW, not above 0.25. As to RPFH, the enrichment ratio was not above 0.25. As to VQPW, the enrichment ratio was not above 0.25. For the variant YQAA, the enrichment ratio is not above 0.25. As for PLHD, the enrichment ratio was not above 0.25. In the case of DGNC, the enrichment ratio is not above 0.25. For the variant MKRT, the enrichment ratio was not above 0.25. KHNL: the enrichment ratio was not above 0.25. The result for VTPM reads not above 0.25; that for AVSA, 5.47. Consider RQLR, for which the enrichment ratio is not above 0.25. To RRYR belongs not above 0.25; to YMWN, not above 0.25. With EKPL, the enrichment ratio is not above 0.25.

Regarding HWHT, the enrichment ratio is not above 0.25. Consider VCVG, for which the enrichment ratio was not above 0.25. On to PQYI, for which the enrichment ratio was not above 0.25. TWYD: the enrichment ratio is not above 0.25. For SHSN, the enrichment ratio is not above 0.25. In the case of HTPR, the enrichment ratio was not above 0.25. With RKDA, the enrichment ratio was not above 0.25.

For the variant CTFT, the enrichment ratio was not above 0.25.

As for RSVN, the enrichment ratio stood at 0.329. PDQS: the enrichment ratio was not above 0.25. For the variant PPSV, the enrichment ratio is not above 0.25. With DMTM, the enrichment ratio is not above 0.25. As to AHFR, the enrichment ratio was not above 0.25.

On to QGYT, for which the enrichment ratio amounted to 1.7. DMDR: the enrichment ratio is not above 0.25. In the case of KTLN, the enrichment ratio was not above 0.25. As to KMPV, the enrichment ratio is not above 0.25. With SDIA, the enrichment ratio was not above 0.25. For the variant PKGG, the enrichment ratio was not above 0.25. Turning to LGEK, the enrichment ratio is not above 0.25. Regarding PFFF, the enrichment ratio is not above 0.25. On to GVDD, for which the enrichment ratio was not above 0.25. Regarding ECNR, the enrichment ratio was not above 0.25. The result for QMYY reads not above 0.25; that for DWSW, not above 0.25. For the variant DLGF, the enrichment ratio is not above 0.25. Regarding CTLI, the enrichment ratio is not above 0.25.

SSQP: the enrichment ratio is not above 0.25. For the variant THTK, the enrichment ratio was not above 0.25. In the case of IPHK, the enrichment ratio is not above 0.25. Regarding PRWL, the enrichment ratio was not above 0.25. As for VFNI, the enrichment ratio is not above 0.25.

On to EQFC, for which the enrichment ratio was not above 0.25. On to GSTH, for which the enrichment ratio was not above 0.25. Turning to NLTM, the enrichment ratio is not above 0.25.

In the case of VEDR, the enrichment ratio is not above 0.25. With DPKI, the enrichment ratio is not above 0.25.

Consider VTEA, for which the enrichment ratio was not above 0.25. With EFIN, the enrichment ratio is not above 0.25.

Turning to HGMF, the enrichment ratio was 1.21.

For the variant LKFG, the enrichment ratio is not above 0.25. Regarding IPTE, the enrichment ratio was not above 0.25. Regarding MIGC, the enrichment ratio stood at 41.4. The result for VRLC reads not above 0.25; that for FYWI, not above 0.25.

PTMI: the enrichment ratio is not above 0.25. PKAK: the enrichment ratio was not above 0.25. Regarding SACG, the enrichment ratio was found to be 8.77. With RCED, the enrichment ratio is not above 0.25.

Consider GSIK, for which the enrichment ratio is not above 0.25. Regarding RETW, the enrichment ratio was not above 0.25. The result for DHQA reads not above 0.25; that for KKVM, not above 0.25.

With ITIM, the enrichment ratio is not above 0.25. Take AHIV: the enrichment ratio was not above 0.25. As to ICNP, the enrichment ratio is not above 0.25. The result for NGRI reads not above 0.25; that for RPMG, not above 0.25.
